{"source": "the supplement of paper PMC8728848", "binders": {"B1": {"name": "Sebin1 (Coprinopsis cinerea), A8PEE3 (protein)", "chain": "MTSPFYAHIHNVQDDNTWRFTLIFANRATADEWWRAISEAPANTSIAKSITRVTPQYYTHDVNIWNIWNFFADGNIKSISERFRGRLFIVLENDRGGRGITVIPPVPIVDHVSGNWFYIRSKTAPHLFWYYDERRSSIYASKEKRTRFKISIRNPSSQTPKNAIMINTDDVTIHIKENLYVGVDNNLGHIIPTRAYRTFKFGELESGAIAGFDVVENIEERCSSTFDGASLSISGPDSSSPGEPWELV"}}, "experiment_in_all_cases": "glycan array binding signal (z-score within array); higher = stronger binding", "conditions_in_all_cases": "glycan notation: IUPAC condensed, linker removed", "key": {"[1]": {"biological_target": "Fuc(a1-3)[Gal3S(b1-4)]GlcNAc", "procedure,_shortened": "(§1)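 Arrays were curated from the Consortium for Functional Glycomics database, 3228 in total, and kept only where the protein sequence was available. Binding is expressed as a within-array Z-score. This score was averaged across arrays of the same protein sequence at different concentrations or buffers and across linkers, and negative values can be read as non-binding.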"}, "[2]": {"biological_target": "Fuc(a1-3)[Gal3S(b1-4)]GlcNAc6S", "procedure,_shortened": "as §1"}, "[3]": {"biological_target": "Fuc(a1-3)[GalNAc(b1-4)]GlcNAc", "procedure,_shortened": "as §1"}, "[4]": {"biological_target": "Fuc(a1-3)[GalNAc(b1-4)]GlcNAc6S", "procedure,_shortened": "as §1"}, "Fuc(a1-4)GlcNAc": {"biological_target": "Fuc(a1-4)GlcNAc", "procedure,_shortened": "as §1"}, "Fuc(b1-3)GlcNAc": {"biological_target": "Fuc(b1-3)GlcNAc", "procedure,_shortened": "as §1"}, "Gal(a1-2)Gal": {"biological_target": "Gal(a1-2)Gal", "procedure,_shortened": "as §1"}, "Gal(a1-3)Gal": {"biological_target": "Gal(a1-3)Gal", "procedure,_shortened": "as §1"}, "Gal(a1-3)Gal(b1-3)GlcNAc": {"biological_target": "Gal(a1-3)Gal(b1-3)GlcNAc", "procedure,_shortened": "as §1"}, "[5]": {"biological_target": "Gal(a1-3)Gal(b1-3)GlcNAc(b1-2)Man", "procedure,_shortened": "as §1"}, "[6]": {"biological_target": "Gal(a1-3)Gal(b1-3)GlcNAc(b1-2)Man(a1-3)[Gal(a1-3)Gal(b1-3)GlcNAc(b1-2)Man(a1-6)]Man(b1-4)GlcNAc(b1-4)GlcNAc", "procedure,_shortened": "as §1"}, "[7]": {"biological_target": "Gal(a1-3)Gal(b1-3)GlcNAc(b1-3)GalNAc", "procedure,_shortened": "as §1"}, "[8]": {"biological_target": "Gal(a1-3)Gal(b1-3)GlcNAc(b1-6)GalNAc", "procedure,_shortened": "as §1"}, "[9]": {"biological_target": "Gal(a1-3)Gal(b1-3)[Fuc(a1-4)]GlcNAc(b1-2)Man(a1-3)[Gal(a1-3)Gal(b1-3)[Fuc(a1-4)]GlcNAc(b1-2)Man(a1-6)]Man(b1-4)GlcNAc(b1-4)GlcNAc", "procedure,_shortened": "as §1"}, "Gal(a1-3)Gal(b1-4)Glc": {"biological_target": "Gal(a1-3)Gal(b1-4)Glc", "procedure,_shortened": "as §1"}, "Gal(a1-3)Gal(b1-4)GlcNAc": {"biological_target": "Gal(a1-3)Gal(b1-4)GlcNAc", "procedure,_shortened": "as §1"}, "[10]": {"biological_target": "Gal(a1-3)Gal(b1-4)GlcNAc(b1-2)Man", "procedure,_shortened": "as §1"}, "[11]": {"biological_target": "Gal(a1-3)Gal(b1-4)GlcNAc(b1-2)Man(a1-3)[Gal(a1-3)Gal(b1-4)GlcNAc(b1-2)Man(a1-6)]Man(b1-4)GlcNAc(b1-4)GlcNAc", "procedure,_shortened": "as §1"}, "[12]": {"biological_target": "Gal(a1-3)Gal(b1-4)GlcNAc(b1-3)GalNAc", "procedure,_shortened": "as §1"}, "[13]": {"biological_target": "Gal(a1-3)Gal(b1-4)GlcNAc(b1-6)GalNAc", "procedure,_shortened": "as §1"}, "[14]": {"biological_target": "Gal(a1-3)Gal(b1-4)[Fuc(a1-3)]GlcNAc", "procedure,_shortened": "as §1"}, "[15]": {"biological_target": "Gal(a1-3)Gal(b1-4)[Fuc(a1-3)]GlcNAc(b1-2)Man(a1-3)[Gal(a1-3)Gal(b1-4)[Fuc(a1-3)]GlcNAc(b1-2)Man(a1-6)]Man(b1-4)GlcNAc(b1-4)GlcNAc", "procedure,_shortened": "as §1"}, "Gal(a1-3)GalNAc": {"biological_target": "Gal(a1-3)GalNAc", "procedure,_shortened": "as §1"}, "[16]": {"biological_target": "Gal(a1-3)[Gal(a1-4)]Gal(b1-4)GlcNAc", "procedure,_shortened": "as §1"}, "[17]": {"biological_target": "Gal(a1-4)Gal(b1-3)GlcNAc(b1-2)Man(a1-3)[Gal(a1-4)Gal(b1-3)GlcNAc(b1-2)Man(a1-6)]Man(b1-4)GlcNAc(b1-4)GlcNAc", "procedure,_shortened": "as §1"}, "Gal(a1-4)Gal(b1-4)Glc": {"biological_target": "Gal(a1-4)Gal(b1-4)Glc", "procedure,_shortened": "as §1"}, "Gal(a1-4)Gal(b1-4)GlcNAc": {"biological_target": "Gal(a1-4)Gal(b1-4)GlcNAc", "procedure,_shortened": "as §1"}, "[18]": {"biological_target": "Gal(a1-4)Gal(b1-4)GlcNAc(b1-2)Man(a1-3)[Gal(a1-4)Gal(b1-4)GlcNAc(b1-2)Man(a1-6)]Man(b1-4)GlcNAc(b1-4)GlcNAc", "procedure,_shortened": "as §1"}, "[19]": {"biological_target": "Gal(a1-4)Gal(b1-4)GlcNAc(b1-3)Gal(b1-4)Glc", "procedure,_shortened": "as §1"}, "Gal(a1-4)GlcNAc": {"biological_target": "Gal(a1-4)GlcNAc", "procedure,_shortened": "as §1"}, "Gal(a1-6)Glc": {"biological_target": "Gal(a1-6)Glc", "procedure,_shortened": "as §1"}, "Gal(b1-2)Gal": {"biological_target": "Gal(b1-2)Gal", "procedure,_shortened": "as §1"}, "Gal(b1-3)Gal": {"biological_target": "Gal(b1-3)Gal", "procedure,_shortened": "as §1"}, "Gal(b1-3)Gal(b1-4)GlcNAc": {"biological_target": "Gal(b1-3)Gal(b1-4)GlcNAc", "procedure,_shortened": "as §1"}, "Gal(b1-3)GalNAc": {"biological_target": "Gal(b1-3)GalNAc", "procedure,_shortened": "as §1"}, "[20]": {"biological_target": "Gal(b1-3)GalNAc(a1-3)[Fuc(a1-2)]Gal(b1-4)Glc", "procedure,_shortened": "as §1"}, "[21]": {"biological_target": "Gal(b1-3)GalNAc(a1-3)[Fuc(a1-2)]Gal(b1-4)GlcNAc", "procedure,_shortened": "as §1"}}, "note": "Some of the results follow."}
{"binder": "B1", "values": [{"measurement": "glycan array binding signal (z-score)", "setting": "[1]", "result": -0.316}, {"measurement": "glycan array binding signal (z-score)", "setting": "[2]", "result": -0.452}, {"measurement": "glycan array binding signal (z-score)", "setting": "[3]", "result": -0.166}, {"measurement": "glycan array binding signal (z-score)", "setting": "[4]", "result": -0.132}, {"measurement": "glycan array binding signal (z-score)", "setting": "Fuc(a1-4)GlcNAc", "result": 0.652}, {"measurement": "glycan array binding signal (z-score)", "setting": "Fuc(b1-3)GlcNAc", "result": -0.215}, {"measurement": "glycan array binding signal (z-score)", "setting": "Gal(a1-2)Gal", "result": -0.195}, {"measurement": "glycan array binding signal (z-score)", "setting": "Gal(a1-3)Gal", "result": -0.231}, {"measurement": "glycan array binding signal (z-score)", "setting": "Gal(a1-3)Gal(b1-3)GlcNAc", "result": -0.043}, {"measurement": "glycan array binding signal (z-score)", "setting": "[5]", "result": -0.255}, {"measurement": "glycan array binding signal (z-score)", "setting": "[6]", "result": 1.51}, {"measurement": "glycan array binding signal (z-score)", "setting": "[7]", "result": -0.287}, {"measurement": "glycan array binding signal (z-score)", "setting": "[8]", "result": 1.21}, {"measurement": "glycan array binding signal (z-score)", "setting": "[9]", "result": 2.45}, {"measurement": "glycan array binding signal (z-score)", "setting": "Gal(a1-3)Gal(b1-4)Glc", "result": -0.013}, {"measurement": "glycan array binding signal (z-score)", "setting": "Gal(a1-3)Gal(b1-4)GlcNAc", "result": 0.156}, {"measurement": "glycan array binding signal (z-score)", "setting": "[10]", "result": -0.426}, {"measurement": "glycan array binding signal (z-score)", "setting": "[11]", "result": 1.2}, {"measurement": "glycan array binding signal (z-score)", "setting": "[12]", "result": 0.527}, {"measurement": "glycan array binding signal (z-score)", "setting": "[13]", "result": 0.435}, {"measurement": "glycan array binding signal (z-score)", "setting": "[14]", "result": 0.193}, {"measurement": "glycan array binding signal (z-score)", "setting": "[15]", "result": 0.056}, {"measurement": "glycan array binding signal (z-score)", "setting": "Gal(a1-3)GalNAc", "result": -0.325}, {"measurement": "glycan array binding signal (z-score)", "setting": "[16]", "result": -0.382}, {"measurement": "glycan array binding signal (z-score)", "setting": "[17]", "result": 0.633}, {"measurement": "glycan array binding signal (z-score)", "setting": "Gal(a1-4)Gal(b1-4)Glc", "result": -0.218}, {"measurement": "glycan array binding signal (z-score)", "setting": "Gal(a1-4)Gal(b1-4)GlcNAc", "result": -0.459}, {"measurement": "glycan array binding signal (z-score)", "setting": "[18]", "result": -0.097}, {"measurement": "glycan array binding signal (z-score)", "setting": "[19]", "result": 0.725}, {"measurement": "glycan array binding signal (z-score)", "setting": "Gal(a1-4)GlcNAc", "result": -0.777}, {"measurement": "glycan array binding signal (z-score)", "setting": "Gal(a1-6)Glc", "result": -0.335}, {"measurement": "glycan array binding signal (z-score)", "setting": "Gal(b1-2)Gal", "result": -0.598}, {"measurement": "glycan array binding signal (z-score)", "setting": "Gal(b1-3)Gal", "result": -0.491}, {"measurement": "glycan array binding signal (z-score)", "setting": "Gal(b1-3)Gal(b1-4)GlcNAc", "result": 1.78}, {"measurement": "glycan array binding signal (z-score)", "setting": "Gal(b1-3)GalNAc", "result": -0.003}, {"measurement": "glycan array binding signal (z-score)", "setting": "[20]", "result": -0.695}, {"measurement": "glycan array binding signal (z-score)", "setting": "[21]", "result": 0.448}]}
